# In paper PMC4336329 (PLoS ONE, 2015):
# Hit rate of the full screen: of about 310,000 compounds, about 2,200 (0.71%) showed an effect of 50% or more. Effects have a minus sign here. The list shows a part of the results.
# Molecular target: human ether-à-go-go-related gene (hERG) potassium channel (human, UniProt Q12809)
# Test: primary screen, population patch clamp on CHO cells stably expressing hERG
# Chain of human ether-à-go-go-related gene (hERG) potassium channel (Q12809 whole entry, looked up): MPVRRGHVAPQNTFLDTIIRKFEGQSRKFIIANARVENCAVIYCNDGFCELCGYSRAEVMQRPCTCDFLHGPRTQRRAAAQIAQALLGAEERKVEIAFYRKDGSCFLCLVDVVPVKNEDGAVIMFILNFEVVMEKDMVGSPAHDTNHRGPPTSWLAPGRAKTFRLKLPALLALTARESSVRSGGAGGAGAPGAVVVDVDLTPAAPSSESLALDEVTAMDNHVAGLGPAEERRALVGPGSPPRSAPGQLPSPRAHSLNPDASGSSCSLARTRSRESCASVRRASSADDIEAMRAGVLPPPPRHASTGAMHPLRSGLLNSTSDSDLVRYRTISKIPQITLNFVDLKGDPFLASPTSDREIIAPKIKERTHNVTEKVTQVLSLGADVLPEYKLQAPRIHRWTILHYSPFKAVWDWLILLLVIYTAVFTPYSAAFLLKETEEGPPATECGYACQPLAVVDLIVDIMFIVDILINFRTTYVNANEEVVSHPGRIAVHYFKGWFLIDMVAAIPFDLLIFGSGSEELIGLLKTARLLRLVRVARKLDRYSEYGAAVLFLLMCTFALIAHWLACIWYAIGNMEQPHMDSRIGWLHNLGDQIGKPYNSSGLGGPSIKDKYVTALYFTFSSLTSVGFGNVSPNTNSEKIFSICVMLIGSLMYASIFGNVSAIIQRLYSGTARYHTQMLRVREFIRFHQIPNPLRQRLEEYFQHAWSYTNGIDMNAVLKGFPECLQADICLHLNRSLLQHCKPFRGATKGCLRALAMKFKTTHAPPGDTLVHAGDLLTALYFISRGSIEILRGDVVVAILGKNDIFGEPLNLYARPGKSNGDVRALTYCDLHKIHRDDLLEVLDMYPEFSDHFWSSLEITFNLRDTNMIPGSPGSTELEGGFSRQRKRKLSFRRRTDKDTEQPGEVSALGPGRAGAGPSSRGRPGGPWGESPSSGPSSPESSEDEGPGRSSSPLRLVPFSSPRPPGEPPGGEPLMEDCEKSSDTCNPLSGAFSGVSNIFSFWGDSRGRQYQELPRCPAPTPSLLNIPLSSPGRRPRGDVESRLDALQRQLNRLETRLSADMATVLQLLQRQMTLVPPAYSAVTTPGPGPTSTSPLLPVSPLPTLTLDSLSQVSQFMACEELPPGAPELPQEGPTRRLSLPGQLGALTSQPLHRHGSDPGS
row,SMILES,"hERG current change (%, negative = inhibition) at 1uM"
1,Cc1cc(=O)n(C(C)(C)C)c(=O)n1Cc1ccccc1,8.56%
2,Cc1[nH]c(=S)c(C#N)c(C)c1Cc1ccccc1,11.7%
3,COc1cc(C(=O)NCCOc2cc(C)ccc2C(C)C)cc(OC)c1OC,11.2%
4,CC1CCN(CCNC(=O)CN(C)S(=O)(=O)c2cccc3nsnc23)CC1,3.12%
5,Cc1cc2c(nn1)CCC/C2=N\O,5.18%
6,O=C(O)CCCCCN1C(=O)C(O)=C(C(=O)/C=C/c2ccccc2)C1c1cccc([N+](=O)[O-])c1 (centres unmarked),13.9%
7,O=C1CC(c2cccnc2)c2cc3c(cc2N1)OCCO3 (centres unmarked),15.8%
8,Cc1ccc(C(C)C)cc1OCC(=O)NNC(=O)Nc1ccccc1,19.8%
9,COc1ccc(C)c(NC(=O)NCCc2cnc[nH]2)c1,8.46%
10,CCOC(=O)N1CCN(CCC(=O)Nc2cccc(C)c2)CC1.Cl,14.8%
11,CCc1cccc(CC)c1NC(=O)COC(=O)CC1c2ccccc2CCN1S(=O)(=O)c1ccccc1 (centres unmarked),8.41%
12,COc1ccc(S(=O)(=O)N2CCN(C(=O)COc3ccccc3)CC2)cc1,1.96%
13,CCOC(=O)CN1C(=O)C(C)(C)Oc2ccc(C(=O)Nc3ccccc3OC)cc21,5.61%
14,CN(C)S(=O)(=O)c1cc(NC(=O)COC(=O)Cc2cccc3ccccc23)ccc1Cl,13.4%
15,COC(=O)c1nn(-c2ccccc2)c2nnc(Cc3ccc(C)cc3)c(=O)n12,7.99%
16,CCn1c(C)cc(/C=C2/NC(=O)N(c3ccccc3)C2=O)c1C,19.2%
17,O=C(NN=C1CCCCCCC1)c1ccc2ccccc2n1,3.15%
18,O=C(Nc1ccc(CN2CCOCC2)cc1)c1ccc(Cl)cc1Cl,10.5%
19,Cc1ccc(C(=O)C(OC(=O)c2c(C)cc(=O)oc2C)c2ccccc2)cc1 (centres unmarked),19.8%
20,CC1=C(C#N)C(NC(=O)c2cccc(Cl)c2)(C(F)(F)F)C(=O)N1 (centres unmarked),9.35%
21,O=C(CCCCn1c(=S)[nH]c2ccsc2c1=O)NCc1ccc2c(c1)OCO2,11.9%
22,CC(=O)Nc1nc(SCc2ccc(Cl)cc2Cl)n[nH]1,8.12%

row,SMILES,"hERG current change (%, negative = inhibition) at 1uM"
1,CCc1cccc(C)c1NC(=O)CN(C)C1=NS(=O)(=O)c2ccccc21,2.13%
2,C/C=C(\C)C(=O)NCCN1C2=NC[C@H](Cc3ccccc3)N2C[C@@H]1Cc1ccc(OC)cc1,-9.48%
3,COc1ccc(NC(=O)NCc2ccccn2)cc1OC,-3.55%
4,CC(C)N=C1CC(C)(C)CC(=O)/C1=C(/O)CCCN1C(=O)c2ccccc2C1=O,5.72%
5,CCOc1cccc(/C=C/c2cc(C(=O)O)c3ccccc3n2)c1OC,12.9%
6,COCCCNC(=S)N1CCC(NC(=O)Nc2ccc(C)cc2)CC1,9.17%
7,Cn1c(=O)c2sccc2n(Cc2ccc(Br)cc2)c1=O,15.3%
8,COc1cccc(N/C=C/C(=O)c2ccc(OC)c(OC)c2)c1,5.81%
9,COc1cc(Cl)c(C)cc1NC(=O)CSc1nnc(-c2ccccn2)n1Cc1ccco1,5.04%
10,CCOc1ccc(NC(=O)c2cc3c(C)nc4ccccc4c3o2)cc1,18.4%
11,COc1ccc(NC(=O)c2sc3nc(N4CCCC4)c4c(c3c2N)CC(C)(C)OC4)c(OC)c1,12.4%
12,N#Cc1ncc(-c2ccc3c(c2)OCCOCCOCCOCCO3)nc1C#N,-63.6%
13,CCC(C)(C)n1nnnc1C(c1cccnc1)N1CCCc2ccccc21 (centres unmarked),8.46%
14,COC(=O)c1cn(C(=O)c2ccc(Br)o2)c2ccccc12,7.21%
15,Cc1ccc[n+](CC(=O)Nc2ccc(Cl)c([N+](=O)[O-])c2)c1.[Cl-],10.3%
16,COc1ccc(-c2onc(C)c2-c2ccccc2)c(O)c1,20.3%
17,Cc1ccc(S(=O)(=O)N2CCOCC2)cc1NC(=O)CSc1nnc2cc(C)c3ccccc3n12,-44.2%
18,CN(CC(=O)NCCN1CCOCC1)S(=O)(=O)c1ccc(F)cc1,8.74%
19,CCOc1cc(/C=C2/C(=N)N3C(=NC2=O)SN=C3S(C)(=O)=O)ccc1OC(=O)c1ccco1,13.4%
20,CCCCn1c(N)c(N(CCOC)C(=O)C2CCN(C(=O)c3ccc(F)cc3)CC2)c(=O)[nH]c1=O,17.2%
21,Cc1c(NC(=O)c2cc3c(s2)-c2ccccc2OC3)cccc1[N+](=O)[O-],3.9%
22,CCCCCn1c(=S)[nH]c2cc(C(=O)N3CCN(C(=O)OCC)CC3)ccc2c1=O,10.3%

row,SMILES,"hERG current change (%, negative = inhibition) at 1uM"
1,Cc1cn(CC(=O)c2ccccc2)c2ccccc12,15%
2,O=C(c1ccccc1)c1cnc(-c2ccccc2)s1,21.3%
3,CSc1cccc(NC(=O)Cn2cnc(S(=O)(=O)N3CCCC3)c2)c1,17.7%
4,O=C(C1CCN(S(=O)(=O)c2cccc3cccnc23)CC1)N1CCN(c2ccc(Cl)cc2)CC1,5.45%
5,Cc1ccc(N(CC(=O)NC2CCCC2)C(=O)CCC(=O)Nc2ccccn2)cc1,3.06%
6,COc1ccc(NC(=O)c2cc3ccccc3o/c2=N\NS(=O)(=O)c2ccc(C)cc2)cc1,-7.26%
7,Cl.O=C(CNCc1ccco1)Nc1ccccc1-n1cccc1,13.8%
8,CC1CCCCN1C(=O)c1cc(-c2ccc3c(c2)OCO3)on1 (centres unmarked),4.7%
9,COc1cc(OC)cc(C(=O)N[C@H](C(=O)OCC(=O)Nc2cccnc2Cl)C(C)C)c1,8.87%
10,Cn1ccsc1=NC(=O)c1ccccc1F,17.3%
11,CC1Cc2ccccc2N1S(=O)(=O)c1cccc(C(=O)N2Cc3ccccc3CC2C(N)=O)c1 (centres unmarked),3.32%
12,COCCNC(=O)CN1C(=O)NC2(CCOc3ccccc32)C1=O (centres unmarked),15.7%
13,Cc1ccccc1OCC(=O)Nc1nnc(S(=O)(=O)N2CCCC2)s1,23.6%
14,O=C(c1ccc2c(c1)OCCO2)N1CCCCC1,6.39%
15,COc1ccccc1C(=O)Nc1cccc(C(=O)N2CCOCC2)c1,31.3%
16,Cc1ccc(CN2CCN(Cc3cn[nH]c3-c3ccccc3)CC2CCO)o1 (centres unmarked),12.2%
17,COc1ccccc1OCc1cc(C(=O)NCc2ccc(N3CCCC3=O)cc2)no1,20.3%
18,NCCCC[C@H]1CN=C(N)N1CCc1cccc2ccccc12,9.97%
19,O=C(Nc1cc(Oc2ccccc2)cc([N+](=O)[O-])c1)C12CC3CC(C1)CC(n1cnc(Cl)n1)(C3)C2,16.5%
20,COc1ccc(CCN2CC(C(=O)NCCc3ccc(C(F)(F)F)cc3)CCC2=O)cc1 (centres unmarked),-2.34%
21,Cc1ccccc1NC(=S)N(Cc1ccco1)C(C)c1ccccn1 (centres unmarked),10.9%
22,CC(=O)Nc1ccc2nc(-c3ccccc3)cn2c1,15.1%

row,SMILES,"hERG current change (%, negative = inhibition) at 1uM"
1,NC(=O)c1ccc(-c2nnc(Nc3ccc(S(N)(=O)=O)cc3)c3ccccc23)cc1,20.6%
2,Fc1ccc(-c2csc3ncnc(Nc4ccc(N5CCOCC5)cc4)c23)cc1,16.8%
3,Cc1nc(-c2ccccc2OC(F)(F)F)[nH]c(=O)c1Cl,6.89%
4,CCO[C@H]1OC(C(=O)N2CCN(Cc3ccc4c(c3)OCO4)CC2)=C[C@@H](C)[C@@H]1CCCO,11.1%
5,CC(OC(=O)Cc1cccc(C(F)(F)F)c1)C(=O)Nc1ccc(Cl)cn1 (centres unmarked),6.82%
6,COc1ccc(C(=O)NC(=S)Nc2ccc3oc(=O)ccc3c2)cc1,7.97%
7,Cc1noc(C)c1CSc1nnc(-c2c[nH]c3ccccc23)n1-c1ccc(Cl)cc1,12.4%
8,C=CCn1c(C)cc(C(=O)COc2ccc(C)nc2[N+](=O)[O-])c1C,7.36%
9,CCN(CC)CCNC(=O)CS(=O)Cc1nc(-c2ccc(C)cc2)oc1C (centres unmarked),13.7%
10,CCSc1sccc1C1C(C#N)=C(N)N(c2cccnc2)C2=C1C(=O)CC(C)(C)C2 (centres unmarked),-21.3%
11,O=S(=O)(NCCCCCNS(=O)(=O)c1c(F)cccc1F)c1ccc2c(c1)OCCO2,12.9%
12,COc1ccc(C(=O)/C=C(\N)C(F)(F)F)c(O)c1,-0.193%
13,Cc1ccc(C)c(NC(=O)CN(C)C(=O)c2ccc(-c3cccc(C(F)(F)F)c3)o2)c1,13.3%
14,Cc1nc(/C(N)=N/OC(=O)c2c(-c3ccccc3Cl)noc2C)cs1,9.06%
15,CN(C)CC1CCCCC1OC(=O)/C=C/c1ccc(Cl)cc1Cl.Cl (centres unmarked),2.15%
16,CCOC(=O)CC(=O)CSc1nc2ccc(C)cc2cc1C#N,2.16%
17,CCOc1ccc(N(C)c2ccc(/C=C3/SC(=S)NC3=O)cc2)cc1,9.04%
18,COc1ccc(O)c(/C=N/c2sc(C)c(C)c2C#N)c1,10.4%
19,On1c(-c2ccccc2)nc2ncccc21,13.4%
20,CC(C)C[C@@H](COc1ccccc1)N1CCN(CCc2ccccc2)CCC1=O,-61.7%
